Reference: ChEMBL document CHEMBL1138213, “Novel multipotent tacrine-dihydropyridine hybrids with improved acetylcholinesterase inhibitory and neuroprotective activities as potential drugs for the treatment of Alzheimer's disease” (J Med Chem, 2006)

Key:
[1] = biological target: Acetylcholinesterase (Homo sapiens, UniProt P22303)
[2] = biological target: Cholinesterase (Homo sapiens, UniProt P06276)
[3] = biological target: Acetylcholinesterase (Electrophorus electricus, UniProt O42275)
Sequence of Acetylcholinesterase (Electrophorus electricus, UniProt O42275) (O42275 whole entry): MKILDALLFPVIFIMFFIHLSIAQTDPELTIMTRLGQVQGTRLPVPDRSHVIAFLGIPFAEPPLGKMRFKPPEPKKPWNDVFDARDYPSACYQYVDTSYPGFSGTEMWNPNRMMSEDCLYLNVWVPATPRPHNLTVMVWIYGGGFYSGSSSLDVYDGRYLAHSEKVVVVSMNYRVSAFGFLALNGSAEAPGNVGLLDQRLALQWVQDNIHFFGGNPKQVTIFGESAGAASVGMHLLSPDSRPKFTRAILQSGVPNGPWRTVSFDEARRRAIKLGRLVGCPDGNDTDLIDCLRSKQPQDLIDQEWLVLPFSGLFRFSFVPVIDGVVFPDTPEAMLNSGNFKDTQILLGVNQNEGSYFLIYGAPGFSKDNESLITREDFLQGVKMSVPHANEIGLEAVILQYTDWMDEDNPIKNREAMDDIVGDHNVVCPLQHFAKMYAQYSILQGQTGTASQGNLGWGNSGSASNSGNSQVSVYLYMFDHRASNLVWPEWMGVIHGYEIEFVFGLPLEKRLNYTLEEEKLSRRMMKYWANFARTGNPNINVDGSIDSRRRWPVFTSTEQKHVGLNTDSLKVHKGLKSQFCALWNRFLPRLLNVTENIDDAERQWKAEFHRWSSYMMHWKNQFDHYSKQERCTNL

Sequence of Acetylcholinesterase (Homo sapiens, UniProt P22303) (P22303 whole entry): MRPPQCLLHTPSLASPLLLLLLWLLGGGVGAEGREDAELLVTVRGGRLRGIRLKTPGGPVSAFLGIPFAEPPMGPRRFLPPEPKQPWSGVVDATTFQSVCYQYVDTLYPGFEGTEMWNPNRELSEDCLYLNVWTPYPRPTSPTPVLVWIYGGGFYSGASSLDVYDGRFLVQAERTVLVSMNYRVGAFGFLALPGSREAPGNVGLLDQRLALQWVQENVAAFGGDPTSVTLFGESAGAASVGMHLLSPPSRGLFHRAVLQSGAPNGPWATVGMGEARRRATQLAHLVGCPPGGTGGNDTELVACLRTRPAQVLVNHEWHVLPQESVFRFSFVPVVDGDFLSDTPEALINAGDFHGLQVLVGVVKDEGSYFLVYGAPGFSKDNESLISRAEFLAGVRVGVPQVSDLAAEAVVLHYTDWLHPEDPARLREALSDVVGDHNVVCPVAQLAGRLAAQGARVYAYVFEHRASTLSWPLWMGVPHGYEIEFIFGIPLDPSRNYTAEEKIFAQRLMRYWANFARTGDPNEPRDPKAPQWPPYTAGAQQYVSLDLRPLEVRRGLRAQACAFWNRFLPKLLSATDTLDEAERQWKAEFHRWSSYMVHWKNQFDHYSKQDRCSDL
Sequence of Cholinesterase (P06276 whole entry): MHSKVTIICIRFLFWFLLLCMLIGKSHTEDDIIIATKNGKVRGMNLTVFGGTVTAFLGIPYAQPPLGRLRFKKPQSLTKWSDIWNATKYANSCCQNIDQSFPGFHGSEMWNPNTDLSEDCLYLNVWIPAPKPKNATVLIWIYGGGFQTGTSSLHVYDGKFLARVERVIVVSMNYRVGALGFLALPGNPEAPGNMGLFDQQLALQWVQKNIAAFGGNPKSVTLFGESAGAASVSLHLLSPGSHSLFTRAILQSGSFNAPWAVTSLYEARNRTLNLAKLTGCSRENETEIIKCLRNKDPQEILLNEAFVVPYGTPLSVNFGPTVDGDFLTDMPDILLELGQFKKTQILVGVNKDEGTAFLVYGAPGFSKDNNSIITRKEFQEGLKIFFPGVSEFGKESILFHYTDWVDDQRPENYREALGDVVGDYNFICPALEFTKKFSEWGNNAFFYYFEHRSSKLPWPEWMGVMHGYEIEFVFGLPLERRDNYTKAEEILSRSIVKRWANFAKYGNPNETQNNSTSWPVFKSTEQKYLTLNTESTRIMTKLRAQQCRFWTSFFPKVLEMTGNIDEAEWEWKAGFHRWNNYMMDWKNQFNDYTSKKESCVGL

Row | Compound | IC50 [1] [nM] | IC50 [2] [nM] | IC50 [3] [nM]
1 | CCOC(=O)C1=C(C)Nc2nc3c(c(N)c2C1c1cccc(OC)c1)CCCC3 (configuration not stated) | 58 | > 100000 | 61
2 | CCOC(=O)C1=C(C)Nc2nc3c(c(N)c2C1c1ccc(F)cc1)CCCC3 (configuration not stated) | 193 | > 100000 | 52
3 | CCOC(=O)C1=C(C)Nc2nc3c(c(N)c2C1c1ccccc1[N+](=O)[O-])CCCC3 (configuration not stated) | 338 | 4800 | 304
4 | CCOC(=O)C1=C(C)Nc2nc3c(c(N)c2C1c1cccc([N+](=O)[O-])c1)CCCC3 (configuration not stated) | 191 | > 100000 | 110
5 | CCOC(=O)C1=C(C)Nc2nc3c(c(N)c2C1c1ccc(OC)cc1)CCCC3 (configuration not stated) | 105 | > 100000 | –
6 | CCOC(=O)C1=C(C)Nc2nc3c(c(N)c2C1c1ccccc1OC)CCCC3 (configuration not stated) | 234 | > 100000 | 160
